Measurements published in PubChem BioAssay AID1508623 (National Center for Advancing Translational Sciences (NCATS), 2021).
The whole screen tested about 48,000 compounds, of which about 450 (0.94%) were called active. About 19% were inconclusive and are not listed. Calls follow the shape of the dose curve; as a rule, active = well fitted inhibition curve with a large enough effect; inconclusive = small, poorly fitted or top-dose-only effect; inactive = no such curve, though single readings can be large or run the other way. This is one part of the list.

Experiment: Primary qHTS for Identification of Small Molecule Inhibitors of Huntingtin Promoter Activity; also: nearly all actives have a fitted effect of over 50% in size
Details: HEK293 HTT promoter firefly luciferase reporter (activity 0% = vehicle and -100% = no light), 24 h; series mostly up to 57.5 µM; activity change, negative = inhibition: at the top concentration
Procedure, shortened: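 Firefly luciferase readout (Dual-Glo, 10 min RT) after 24 h, 37 °C compound exposure (final up to 57.5 uM) of HEK293 reporter cells cultured 24 h beforehand; PTC124 at 50 uM final as control inhibitor; activity scaled vehicle 0%, zero RLU -100%.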

Activity change, negative = inhibition, inactive:
Cc1nc(-c2ccc(S(=O)(=O)N(Cc3ccccc3)C(C)C)cc2)co1 -21.6%, COc1ccc(CCn2c(=O)c3cccnc3n(CC(=O)Nc3ccc(C)cc3C)c2=O)cc1OC 1.57%, Cn1cc(C(=O)Nc2ccc(C#N)cc2)c2ccccc2c1=O -28.5%, CCOc1ccc(CCNC(=O)c2ccc3c(c2)nc2n3CCOC2)cc1OCC -12.6%, CC(C)OCCCNC(=O)CCCn1c(SCC(N)=O)nc2c(sc3ccccc32)c1=O -12.7%, CN(C(=O)c1c2c(nc3ccccc13)C(=O)N(C1CCCCC1)C2)c1ccc(F)cc1 -21.3%, Cc1ccc(S(=O)(=O)NCCc2csc3nc(-c4ccccc4F)nn23)cc1C -35.9%, COc1cccc(-c2nc(SCc3ccc(C)cc3)n3[nH]c(=O)cc3n2)c1 -0.158%, CC(NC(=O)C1CCN(S(=O)(=O)c2ccc3c(c2)oc(=O)n3C)CC1)c1ccccc1 (configuration not stated) -12%, O=[N+]([O-])c1ccc(S(=O)(=O)N2CCn3cccc3C2c2ccccc2F)cc1 (configuration not stated) -24.5%, Cc1ccc(C)c(N2CCN(c3nc4ccc(Cl)cc4n4cnnc34)CC2)c1 -22%, Cc1ccccc1OCc1nnc(SCc2cc(=O)c3ccc(C)c(C)c3[nH]2)n1C -0.0075%, Cc1ccc(-c2cc3c(n2-c2ccc(F)cc2)CC(C)(C)CC3=O)cc1 -4.04%, Cc1cccc(NC(=O)CSc2nc3ccccc3c3nc(CCc4c(C)n[nH]c4C)nn23)c1 0%, CCOC(=O)c1cccc(NC(=O)CSc2nc3cc4ccccc4cc3[nH]2)c1 -3.5%, CC(C)c1cnc2c(c1SCC(=O)O)c(=O)n(C)c(=O)n2C 2.12%, CC(=O)Nc1ccc(NC(=O)c2cnn(-c3ccccc3)c2C2CCN(C(=O)OC(C)(C)C)CC2)cc1 -1.77%, O=C(CNC(=O)c1ccccc1F)OCc1cc(=O)n2nc(C3CC3)sc2n1 -10.8%, CCOc1ccccc1Nc1nnc(-c2cc3cc(Cl)ccc3oc2=O)s1 -14.8%, COc1cc(OC)cc(C(=O)Nc2ccc3c(c2)OCCO3)c1 50.8%, CC(NC(=O)c1cc2ccccc2o1)c1ccccc1 (configuration not stated) -29.1%, CCOc1ccc(NC(=O)CSC2=Nc3ccccc3C3=NC(Cc4ccccc4)C(=O)N23)cc1 (configuration not stated) -29.9%, CCOC(=O)c1c(C)[nH]c(C)c1S(=O)(=O)N1CCCC(C(=O)Nc2cccc(C)n2)C1 (configuration not stated) -19.5%, COc1ccc(-c2nc3sc(CCNC(=O)C(=O)Nc4ccc(C)c(F)c4)c(C)n3n2)cc1 -36.6%, CCCn1nc(NC(=O)c2cccc(Cl)c2)c2cc3cccc(C)c3nc21 -7.03%, CCc1ccc(S(=O)(=O)c2cn(C)c3cc(F)c(F)cc3c2=O)cc1 -25.5%, Cc1ccc(NC(=O)Cn2c(-c3nonc3N)nc3ccccc32)cc1C -1.36%, COc1ccccc1CN1CCN(C2CCN(C(=O)Nc3ccccc3)CC2)C(=O)C1=O 15.5%, NC(=O)C1CCCc2c1[nH]c1ccc(Cl)cc21 (configuration not stated) -15%, CC(Nc1ccc(-c2nc(-c3ccco3)no2)cc1[N+](=O)[O-])c1ccccc1 (configuration not stated) 13.3%, CC(C)(C)C(=O)Nc1cccc(C(=O)OCc2cc(=O)n3nc(C4CC4)sc3n2)c1 -11.7%, Cc1ccccc1NC(=O)CCNC(=O)Cn1ccc2ccccc2c1=O 0.579%, COc1cc(NC(=O)c2cc3ccc4cccnc4c3[nH]2)cc(OC)c1OC 12.7%, CCOC(=O)c1ccc(NC(=O)CSc2nc(-c3cccs3)cc(C(F)(F)F)c2C#N)cc1 -20.8%, CCS(=O)(=O)c1nc(S(=O)(=O)c2ccc(C)cc2)c(NCC(C)C)s1 -17.7%, CCOC(=O)N1CCc2c(sc(NCc3sccc3C)c2C(=O)Nc2cc(Cl)ccc2OC)C1 -13.4%, Cc1ccc(NC(=O)N2CCN(Cc3nc4ccc(C)cc4o3)CC2)c(Cl)c1 -32.8%, Cc1cc(C)n(-c2nc(C)c(C)c(=O)n2CC(=O)Nc2ccc(Cl)c(Cl)c2)n1 -10.3%, COc1ccc(-c2nnc(SCC(=O)Nc3cccc(Cl)c3C)nc2-c2ccc(OC)cc2)cc1 -2.2%, Cc1cc(C)c(NC(=O)Cn2nnc(C(=O)Nc3ccc(F)cc3F)c2N)c(C)c1 -1.28%, CC(=O)Nc1ccc(NC(=O)c2c(C)nn(-c3ccccc3)c2-n2cccc2)cc1 -22.2%, Cc1ccc(CNc2ncnc3c2cnn3-c2ccc(C)cc2C)cc1 -14%, Cc1ccc(CNC(=O)c2ccc3c(c2)nc2n3CCCC2)cc1 41.1%, CCc1nn2c(=O)cc(COC(=O)C3CCCCC3)nc2s1 -14.2%, COc1cccc(NC(=O)c2nnn(Cc3ccc(OC)c(Br)c3)c2N)c1 -24.9%, CCOC(=O)c1cc(-c2ccccc2)n(CCCC(=O)Nc2ccc(C)cc2Cl)c1C -37.9%, COc1ccc(CNC(=O)C2CCN(S(=O)(=O)c3ccc4nc5c(c(C(=O)O)c4c3)CC(C)CC5)CC2)cc1 (configuration not stated) -17.6%, COc1cc(-c2noc(C3CC(=O)N(c4cc(C)ccc4C)C3)n2)cc(OC)c1OC (configuration not stated) -23.6%, CCOc1ccc(NC(=O)Cn2cnc3c(oc4ccccc43)c2=O)cc1 -5.67%, CC(C)(C)OC(=O)N1CCC(c2c(C(=O)NCc3ccccn3)cnn2-c2ccc(F)cc2)CC1 -10.4%, COc1ccc2c(c1)c1c(c(=O)n(-c3cccc(C)c3)c(=O)n1CC(=O)N1CCCC1)n2C -5.93%, Cc1cc(C)c2c(=O)cc(C(=O)Nc3ccc(S(=O)(=O)Nc4onc(C)c4C)cc3)oc2c1 6.51%, Cc1ccc2c(=O)cc(C(=O)Nc3c(C(=O)c4ccccc4)oc4ccccc34)oc2c1C 9.57%, COC(=O)[C@H](Cc1ccccc1)NC(=O)[C@@H](N)CC(=O)O, CCN1C(=O)c2ccccc2Sc2ccc(NC(=O)Cc3ccc(OC)cc3)cc21 -10%, COc1ccc(-c2cc(-c3ccccc3)nc3c2COc2ccccc2-3)cc1 -4.62%, CC(C)CC(=O)Nc1nnc2n1CCS2 -5.63%, COc1ccc(-n2nnc(C(=O)Nc3ccccc3F)c2N)cc1 31.4%, CCc1ccccc1N(c1nc(-c2ccc(OC)c(OC)c2)no1)c1nc(-c2ccc(OC)c(OC)c2)no1 -25.2%, COc1cccc(NC(=O)C(=O)NCCc2csc3nc(-c4ccccc4C)nn23)c1 -6.53%, COC(=O)c1c(NC(=O)c2nc(SC)ncc2Cl)sc2c1CCCC2 -18.1%, CC(=O)NCc1nc2cccnc2n1Cc1ccccc1 -5.21%
